Reference: ChEMBL document CHEMBL5308541, “MAIP: An Open-Source Tool to Enrich High-Throughput Screening Output and Identify Novel, Druglike Molecules with Antimalarial Activity” (ACS Med Chem Lett, 2023)
About 540 (0.36%) of roughly 150,000 compounds showed an effect of 50% or more. The list shows a part of the results.

These compounds were tested on Plasmodium falciparum (assay: Primary screen in NF54 nanoGlo assay, in single point, at 2uM, 72h; a lower Z score goes with more inhibition). Conditions: timepoint 72 hour.
Type: functional, Erythrocyte

Compound	% Inhibition	Z score
Cc1cc(C(=O)N2CC(N3CCCCC3)C2)c2cccc(C)c2n1	-3%	0.64
Cc1cc(NC[C@H](O)c2ccc(O)cc2)nc(N)n1	-16%	3.27
Cc1cc(CN2CCN(CC3(CN4CCN(Cc5cc(C)no5)CC4)COC3)CC2)on1	8%	-1.48
O=C(Nc1cccc(N2CCC(N3CCN(c4ncnc5ccccc45)CC3)CC2)c1)c1ccncc1	-2%	0.28
COc1cc(OC)cc(N2CCCN(C[C@]3(O)CCNC3)CC2)c1	-5%	0.84
O=C(NCc1nc2cc(Br)ccc2o1)C(C1CC1)C1CC1	1%	-0.31
CN(C)c1nsc(-c2ccc(C(=O)NC3CS(=O)(=O)CC3O)cc2)n1 (stereo unspecified)	-8%	1.3
CCN1CCC[C@@H]1CN=C(NCCOC)NCCS(=O)(=O)CC	-5%	0.93
O=c1ccnc2sc(N[C@H]3CC[C@H](Nc4ccccn4)CC3)nn12	0%	-0.02
COC(=O)C1CN(Cc2ccc(Cl)c3cccnc23)CC1C (stereo unspecified)	2%	-0.35
CC(C)(C)[C@H](NCC(F)(F)F)c1nc(-c2nc[nH]n2)no1	4%	-0.67
O=C(NCCN1CCC(CO)CC1)c1ccccc1-c1ccccc1F	-12%	2.57
CCc1nc(CN(C)C(=O)C2OCC(=O)NC2c2ccccc2)no1 (stereo unspecified)	-3%	0.57
COCCN(C)CCN1C[C@@H](Nc2ncnc3c2cnn3C)CC1=O	5%	-0.83
CCN(C)c1cc(NC2CCN(C[C@H]3CCCO3)CC2)ncn1	2%	-0.39
COc1ccc2cc(CNC3CC4CCC(C3)N4C(=O)OC(C)(C)C)ccc2c1 (stereo unspecified)	2%	-0.43
CCN1CCN(c2ccc(CNCc3cccc(O)c3)cc2F)CC1	90%	-19.29
COC1CCN(c2ccc(C(=O)NCc3cncc(-c4ccoc4)c3)cc2)CC1	-8%	1.65
O[C@@H](CNCc1cc2cc(Cl)c(Cl)cc2[nH]1)c1ccc(F)cc1	76%	-13.27
NC(=O)c1ccccc1N1CC[C@H](NCc2ccc3c[nH]nc3c2)C1	9%	-1.41
Cc1cc(C)nc(N2CCC(N3CCCN(C4COCC4O)CC3)CC2)n1 (stereo unspecified)	5%	-0.81
C[C@H](NC(=O)c1cc(O)c2ccccc2n1)c1cc2ccccc2s1	-1%	0.21
OCC[C@H](Nc1ccnc2ccncc12)C1CCCCC1	8%	-1.67
